According to patent US20120178908A1 (Novo Nordisk, published 2012):

B1: mAb 0012-(TF-L4b-LC)2;HC2 (other)
TF-linker-light chain: SGTTNTVAAYNLTWKSTNFKTILEWEPKPVNQVYTVQISTKSGDWKSKCFYTTDTECDLTDEIVKDVKQTYLARVFSYPAGNVESTGSAGEPLYENSPEFTPYLETNLGQPTIQSFEQVGTKVNVTVEDERTLVRRNNTFLSLRDVFGKDLIYTLYYWKSSSSGKKTAKTNTNEFLIDVDKGENYCFSVQAVIPSRTVNRKSTDSPVECMGQEKGEFREGGGGSGGGGSGGGGSGSMKLPVGLLVLMFWIPASSSDVVMTQTPLSLPVSLGDQASISCRSSQSLVHRNGNTYFHWCLQKPGQSPKLLIYKVSNRFSGVPDRFSGSGSGTDFTLKISRVEAEDLGVYFCSQSTHVPYTFGGGTKLEIKRTVAAPSVFIFPPSDEQLKSGTASVVCLLNNFYPREAKVQWKVDNALQSGNSQESVTEQDSKDSTYSLSSTLTLSKADYEKHKVYACEVTHQGLSSPVTKSFNRGEC
heavy chain: EVKLLESGGGLVQPGGSLKLSCAASGFDFSRYWMTWVRQAPGKGLEWIGEINPDSSTINYTPSLKDKFIISRDNAKNTLYLQMSEVRSEDTALYYCASGVFTSWGQGTLVTVSAASTKGPSVFPLAPCSRSTSESTAALGCLVKDYFPEPVTVSWNSGALTSGVHTFPAVLQSSGLYSLSSVVTVPSSSLGTKTYTCNVDHKPSNTKVDKRV[human IgG4 Fc with S228P (EU numbers) omitted]
B2: mAb 0023-(HC-L4a-TF)2;(LC-HPC4)2 (other)
heavy chain-linker-TF: EVRLVESGGGLVQPGGSLKLSCATSGFTFSDYFMYWIRQTPEKRLEWVAYISNGGDSSSYPDTVKGRFTISRDNAKNTLYLQMSRLKSEDTAMYYCATNKNWDDYYDMDYWGQGTSVTVSSASTKGPSVFPLAPCSRSTSESTAALGCLVKDYFPEPVTVSWNSGALTSGVHTFPAVLQSSGLYSLSSVVTVPSSSLGTKTYTCNVDHKPSNTKVDKRV[human IgG4 Fc with S228P (EU numbers) omitted]GSGGGGSGGGGSGGGGSSGTTNTVAAYNLTWKSTNFKTILEWEPKPVNQVYTVQISTKSGDWKSKCFYTTDTECDLTDEIVKDVKQTYLARVFSYPAGNVESTGSAGEPLYENSPEFTPYLETNLGQPTIQSFEQVGTKVNVTVEDERTLVRRNNTFLSLRDVFGKDLIYTLYYWKSSSSGKKTAKTNTNEFLIDVDKGENYCFSVQAVIPSRTVNRKSTDSPVECMGQEKGEFRE
light chain-HPC4: DIVVSQSPSSLAVSAGEKVTMSCKSSQSLLNSRTRKNYLAWYQQKPGQSPKLLIYWASTRESGVPDRFTGSGSGTDFTLTISSVQAEDLAVYYCKQSYNLLTFGAGTKLELKRTVAAPSVFIFPPSDEQLKSGTASVVCLLNNFYPREAKVQWKVDNALQSGNSQESVTEQDSKDSTYSLSSTLTLSKADYEKHKVYACEVTHQGLSSPVTKSFNRGECEDQVDPRLIDGK
B3: mAb 0023-(LC-L4a-TF)2;HC2 (other)
light chain-linker-TF: DIVVSQSPSSLAVSAGEKVTMSCKSSQSLLNSRTRKNYLAWYQQKPGQSPKLLIYWASTRESGVPDRFTGSGSGTDFTLTISSVQAEDLAVYYCKQSYNLLTFGAGTKLELKRTVAAPSVFIFPPSDEQLKSGTASVVCLLNNFYPREAKVQWKVDNALQSGNSQESVTEQDSKDSTYSLSSTLTLSKADYEKHKVYACEVTHQGLSSPVTKSFNRGECGSGGGGSGGGGSGGGGSSGTTNTVAAYNLTWKSTNFKTILEWEPKPVNQVYTVQISTKSGDWKSKCFYTTDTECDLTDEIVKDVKQTYLARVFSYPAGNVESTGSAGEPLYENSPEFTPYLETNLGQPTIQSFEQVGTKVNVTVEDERTLVRRNNTFLSLRDVFGKDLIYTLYYWKSSSSGKKTAKTNTNEFLIDVDKGENYCFSVQAVIPSRTVNRKSTDSPVECMGQEKGEFRE
heavy chain: EVRLVESGGGLVQPGGSLKLSCATSGFTFSDYFMYWIRQTPEKRLEWVAYISNGGDSSSYPDTVKGRFTISRDNAKNTLYLQMSRLKSEDTAMYYCATNKNWDDYYDMDYWGQGTSVTVSSASTKGPSVFPLAPCSRSTSESTAALGCLVKDYFPEPVTVSWNSGALTSGVHTFPAVLQSSGLYSLSSVVTVPSSSLGTKTYTCNVDHKPSNTKVDKRV[human IgG4 Fc with S228P (EU numbers) omitted]
B4: mAb 0051-(HC-L4a-TF)2;(LC-HPC4)2 (other)
heavy chain-linker-TF: QVQLEQSGAELVRPGVSVKISCKGSGYTFTDYSMHWVKQSHAKSLEWIGVISTYYGDVRYNQKFKGKATMTVDKSSSTAYMALARLTSEDSAIYYCARAPMITTGAWFAYWGQGTLVTVSAASTKGPSVFPLAPCSRSTSESTAALGCLVKDYFPEPVTVSWNSGALTSGVHTFPAVLQSSGLYSLSSVVTVPSSSLGTKTYTCNVDHKPSNTKVDKRV[human IgG4 Fc with S228P (EU numbers) omitted]GSGGGGSGGGGSGGGGSSGTTNTVAAYNLTWKSTNFKTILEWEPKPVNQVYTVQISTKSGDWKSKCFYTTDTECDLTDEIVKDVKQTYLARVFSYPAGNVESTGSAGEPLYENSPEFTPYLETNLGQPTIQSFEQVGTKVNVTVEDERTLVRRNNTFLSLRDVFGKDLIYTLYYWKSSSSGKKTAKTNTNEFLIDVDKGENYCFSVQAVIPSRTVNRKSTDSPVECMGQEKGEFRE
light chain-HPC4: SIVMTQTPKFLLVSAGDRVTITCKASQSVSNDVAWYQQKPGQSPKLLINYASSRYTGIPDRFTGSGYGTDFTFTISTVQAEDLAVYFCQQDYSSPYTFGGGTKLEIERTVAAPSVFIFPPSDEQLKSGTASVVCLLNNFYPREAKVQWKVDNALQSGNSQESVTEQDSKDSTYSLSSTLTLSKADYEKHKVYACEVTHQGLSSPVTKSFNRGECEDQVDPRLIDGK
B5: mAb 0051-(LC-L4a-TF)2;HC2 (other)
light chain-linker-TF: SIVMTQTPKFLLVSAGDRVTITCKASQSVSNDVAWYQQKPGQSPKLLINYASSRYTGIPDRFTGSGYGTDFTFTISTVQAEDLAVYFCQQDYSSPYTFGGGTKLEIERTVAAPSVFIFPPSDEQLKSGTASVVCLLNNFYPREAKVQWKVDNALQSGNSQESVTEQDSKDSTYSLSSTLTLSKADYEKHKVYACEVTHQGLSSPVTKSFNRGECGSGGGGSGGGGSGGGGSSGTTNTVAAYNLTWKSTNFKTILEWEPKPVNQVYTVQISTKSGDWKSKCFYTTDTECDLTDEIVKDVKQTYLARVFSYPAGNVESTGSAGEPLYENSPEFTPYLETNLGQPTIQSFEQVGTKVNVTVEDERTLVRRNNTFLSLRDVFGKDLIYTLYYWKSSSSGKKTAKTNTNEFLIDVDKGENYCFSVQAVIPSRTVNRKSTDSPVECMGQEKGEFRE
heavy chain: QVQLEQSGAELVRPGVSVKISCKGSGYTFTDYSMHWVKQSHAKSLEWIGVISTYYGDVRYNQKFKGKATMTVDKSSSTAYMALARLTSEDSAIYYCARAPMITTGAWFAYWGQGTLVTVSAASTKGPSVFPLAPCSRSTSESTAALGCLVKDYFPEPVTVSWNSGALTSGVHTFPAVLQSSGLYSLSSVVTVPSSSLGTKTYTCNVDHKPSNTKVDKRV[human IgG4 Fc with S228P (EU numbers) omitted]
B6: mAb 0052-(HC-L4a-TF)2;(LC-HPC4)2 (other)
heavy chain-linker-TF: QVQLQQSGAEPMKPGASVKISCKATGYTFSSHWIEWIKQRPGHGLEWIGEILPGSGNTNYNEKFKGKATFTADTSSNTAYMQLSSLTSEDSAVYCCARGYYGLNYDWYFDVWGAGTTVTVSSASTKGPSVFPLAPCSRSTSESTAALGCLVKDYFPEPVTVSWNSGALTSGVHTFPAVLQSSGLYSLSSVVTVPSSSLGTKTYTCNVDHKPSNTKVDKRV[human IgG4 Fc with S228P (EU numbers) omitted]GSGGGGSGGGGSGGGGSSGTTNTVAAYNLTWKSTNFKTILEWEPKPVNQVYTVQISTKSGDWKSKCFYTTDTECDLTDEIVKDVKQTYLARVFSYPAGNVESTGSAGEPLYENSPEFTPYLETNLGQPTIQSFEQVGTKVNVTVEDERTLVRRNNTFLSLRDVFGKDLIYTLYYWKSSSSGKKTAKTNTNEFLIDVDKGENYCFSVQAVIPSRTVNRKSTDSPVECMGQEKGEFRE
light chain-HPC4: DIQMTQTTSSLSASLGDRVTISCRASQDISNYLNWYQQKPDGTVKLLIFYTSRLHSGVPSRFSGSGSGTDYSLTISNLEPEDIATYYCQQDTKLPYTFGGGTKLEMKRTVAAPSVFIFPPSDEQLKSGTASVVCLLNNFYPREAKVQWKVDNALQSGNSQESVTEQDSKDSTYSLSSTLTLSKADYEKHKVYACEVTHQGLSSPVTKSFNRGECEDQVDPRLIDGK
B7: mAb 0052-(LC-L4a-TF)2;HC2 (other)
light chain-linker-TF: DIQMTQTTSSLSASLGDRVTISCRASQDISNYLNWYQQKPDGTVKLLIFYTSRLHSGVPSRFSGSGSGTDYSLTISNLEPEDIATYYCQQDTKLPYTFGGGTKLEMKRTVAAPSVFIFPPSDEQLKSGTASVVCLLNNFYPREAKVQWKVDNALQSGNSQESVTEQDSKDSTYSLSSTLTLSKADYEKHKVYACEVTHQGLSSPVTKSFNRGECGSGGGGSGGGGSGGGGSSGTTNTVAAYNLTWKSTNFKTILEWEPKPVNQVYTVQISTKSGDWKSKCFYTTDTECDLTDEIVKDVKQTYLARVFSYPAGNVESTGSAGEPLYENSPEFTPYLETNLGQPTIQSFEQVGTKVNVTVEDERTLVRRNNTFLSLRDVFGKDLIYTLYYWKSSSSGKKTAKTNTNEFLIDVDKGENYCFSVQAVIPSRTVNRKSTDSPVECMGQEKGEFRE
heavy chain: QVQLQQSGAEPMKPGASVKISCKATGYTFSSHWIEWIKQRPGHGLEWIGEILPGSGNTNYNEKFKGKATFTADTSSNTAYMQLSSLTSEDSAVYCCARGYYGLNYDWYFDVWGAGTTVTVSSASTKGPSVFPLAPCSRSTSESTAALGCLVKDYFPEPVTVSWNSGALTSGVHTFPAVLQSSGLYSLSSVVTVPSSSLGTKTYTCNVDHKPSNTKVDKRV[human IgG4 Fc with S228P (EU numbers) omitted]

target: T1, TLT-1 receptor on the surface of activated human platelets (human, UniProt Q86YW5 16-311); assay: cell-based or functional assay
T1 sequence: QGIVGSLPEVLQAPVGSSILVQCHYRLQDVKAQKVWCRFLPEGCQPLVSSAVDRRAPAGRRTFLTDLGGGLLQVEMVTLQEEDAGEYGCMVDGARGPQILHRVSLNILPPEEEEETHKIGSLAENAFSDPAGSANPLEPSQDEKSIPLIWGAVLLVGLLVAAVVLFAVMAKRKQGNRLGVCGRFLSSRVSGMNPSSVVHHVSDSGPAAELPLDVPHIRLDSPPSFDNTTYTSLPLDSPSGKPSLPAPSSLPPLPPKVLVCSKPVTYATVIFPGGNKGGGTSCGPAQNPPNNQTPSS

Row | Binder | FVII-mediated FXa generation % Activity activated plts (n 1) [%] | FVIIa-mediated FXa generation % Activity activated plts (n 1) [%] | FVII-mediated FXa generation % Activity activated plts (n 2) [%] | FVIIa-mediated FXa generation % Activity activated plts (n 2) [%]
1 | B1 | 3 |  |  | 
2 | B2 | 4 | 14 |  | 
3 | B3 | 5 |  |  | 
4 | B4 | 18 | 15 |  | 
5 | B5 |  |  | 12 | 15
6 | B6 | 7 | 10 |  | 
7 | B7 |  | 7 | 2 | 
